Measured values reported in ChEMBL document CHEMBL1125073, “Antitubulin effects of derivatives of 3-demethylthiocolchicine, methylthio ethers of natural colchicinoids, and thioketones derived from thiocolchicine. Comparison with colchicinoids” (J Med Chem, 1990).

Assays:
L1210 = assay: cells; details: Mus musculus
Mus musculus = species on record: Mus musculus; details: in vivo, im

| Structure (SMILES) | IC50 (L1210) [nM] | Toxicity (Mus musculus) [mg/kg] |
| --- | --- | --- |
| CCCC(=O)N[C@H]1CCc2cc(OC(C)=O)c(OC)c(OC)c2-c2ccc(SC)c(=O)cc21 | 70 | – |
| CCCCOC(=O)N[C@H]1CCc2cc(OC)c(OC)c(OC)c2-c2ccc(OC)c(=O)cc21 | 20 | – |
| CCCC(=O)Oc1cc2c(c(OC)c1OC)-c1ccc(SC)c(=O)cc1[C@@H](NC(C)=O)CC2 | 30 | – |
| COc1c(O)cc2c(c1OC)-c1ccc(SC)c(=O)cc1[C@@H](NC=O)CC2 | 40 | – |
| CCCC(=O)N[C@H]1CCc2cc(O)c(OC)c(OC)c2-c2ccc(SC)c(=O)cc21 | 60 | – |
| CCCCOC(=O)Oc1cc2c(c(OC)c1OC)-c1ccc(SC)c(=O)cc1[C@@H](NC(C)=O)CC2 | 30 | – |
| CN[C@H]1CCc2cc(OC)c(OC)c(OC)c2-c2ccc(SC)c(=O)cc21 | 20 | – |
| COc1cc2c(c(OC)c1OC)-c1ccc(SC)c(=O)cc1[C@@H](N)CC2 | 40 | – |
| CCCC(=O)N[C@H]1CCc2cc(OC(=O)CCC)c(OC)c(OC)c2-c2ccc(SC)c(=O)cc21 | 70 | – |
| COc1c(O)cc2c(c1OC)-c1ccc(SC)c(=O)cc1[C@@H](NC(=O)C(F)(F)F)CC2 | 10 | – |
| CCOCC(=O)Oc1cc2c(c(OC)c1OC)-c1ccc(SC)c(=O)cc1[C@@H](NC(C)=O)CC2 | 30 | – |
| COc1c(O)cc2c(c1OC)-c1ccc(SC)c(=O)cc1[C@@H](N(C)C(=O)C(F)(F)F)CC2 | 7 | – |
| CCOC(=O)Oc1cc2c(c(OC)c1OC)-c1ccc(SC)c(=O)cc1[C@@H](NC(C)=O)CC2 | 40 | – |
| CCCCOC(=O)N(C)[C@H]1CCc2cc(OC)c(OC)c(OC)c2-c2ccc(OC)c(=O)cc21 | 70 | – |
| COc1c(O)cc2c(c1OC)-c1ccc(OC)c(=O)cc1[C@@H](NC(C)=O)CC2 [3-DESMETHYLCOLCHICIN] | – | 26 |
| COc1cc2c(c(OC)c1OC)-c1ccc(OC)c(=O)cc1[C@@H](N)CC2 [DEACETYLCOLCHICINE] | – | 28 |
| CN[C@H]1CCc2cc(OC)c(OC)c(OC)c2-c2ccc(OC)c(=O)cc21 [DEMECOLCINE] | – | 237 |
